Measurements taken from PubChem BioAssay AID1159614 (National Center for Advancing Translational Sciences (NCATS), 2016).
About 65 (0.1%) of roughly 45,000 compounds were called active. Calls come from the whole dose curve; as a rule, active = well fitted activation curve with a large enough effect; inconclusive = small, poorly fitted or top-dose-only effect; inactive = no such curve, though single readings can be large or run the other way. This is one part of the list.

target: Galactocerebrosidase (Homo sapiens) (UniProt P54803); experiment: A Novel Cell-Based Assay to Identify Small Molecules for B -Galactocerebrosidase; settings: 145M-Twi-hGALC-G270D cells (Twitcher mouse brain line with human GALC G270D), HMU-beta-Gal fluorescence, 48 h; series mostly up to 57.5 µM; activation: at the top concentration; note: 0% is about no effect; nearly all actives have a fitted effect of over 65% in size
Chain of UniProt P54803 (P54803 whole entry, looked up): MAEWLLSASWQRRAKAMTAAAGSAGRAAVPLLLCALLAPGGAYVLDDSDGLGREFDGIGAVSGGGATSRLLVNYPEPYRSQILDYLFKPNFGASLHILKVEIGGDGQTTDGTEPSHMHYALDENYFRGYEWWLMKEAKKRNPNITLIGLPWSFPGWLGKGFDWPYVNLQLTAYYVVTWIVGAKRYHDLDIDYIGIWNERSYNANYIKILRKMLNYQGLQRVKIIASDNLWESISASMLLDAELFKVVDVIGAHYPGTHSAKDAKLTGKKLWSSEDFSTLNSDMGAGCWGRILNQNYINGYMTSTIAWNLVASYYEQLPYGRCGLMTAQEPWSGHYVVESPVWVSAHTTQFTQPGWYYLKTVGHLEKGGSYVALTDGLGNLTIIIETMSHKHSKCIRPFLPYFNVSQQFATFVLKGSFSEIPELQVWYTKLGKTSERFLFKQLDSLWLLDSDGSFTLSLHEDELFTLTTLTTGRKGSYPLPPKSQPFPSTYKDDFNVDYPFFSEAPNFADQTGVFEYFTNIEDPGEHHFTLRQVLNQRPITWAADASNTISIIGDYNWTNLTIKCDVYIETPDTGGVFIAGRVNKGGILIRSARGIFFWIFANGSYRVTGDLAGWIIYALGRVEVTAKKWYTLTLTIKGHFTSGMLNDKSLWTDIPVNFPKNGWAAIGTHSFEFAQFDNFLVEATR
In short: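 Brain-derived Twitcher mouse 145M-Twi cells stably expressing human GALC-G270D or wild-type GALC, treated live, then residual GALC activity read by fluorescence of HMU-b-Gal substrate (0.1 mM final) in citrate-phosphate buffer pH 5.2 with sodium taurocholate. Signal increase indicates enhancement.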

activation, inactive:
COc1cc(NC(=O)C2CCCN(S(=O)(=O)c3ccc4c(c3)CCCC(=O)N4)C2)cc(OC)c1 (stereo not given) -19.6%
COc1cc(Cl)c(C)cc1NC(=O)Cn1ncc2c(=O)oc3ccccc3c21 -10.9%
CCOc1cccc(C2c3[nH]c4ccccc4c3CCN2C(=O)CCC2CCCC2)c1 (stereo not given) -1.63%
CCc1cccc(NC(=O)C2CCC(CNS(=O)(=O)c3csc(C(N)=O)c3)CC2)c1 (stereo not given) -9.05%
CSc1ncc(Cl)c(C(=O)Nc2ccc(S(=O)(=O)N3CCCC(C)C3)cc2)n1 (stereo not given) -13.1%
CCC(Sc1nc2nccnc2c(=O)n1Cc1ccc(F)cc1)C(=O)NC1CCCCC1 (stereo not given) -9.59%
CCCC(=O)O[C@]1(C(=O)CO)CC[C@H]2[C@@H]3CCC4=CC(=O)CC[C@]4(C)[C@H]3[C@@H](O)C[C@@]21C -3.71%
Cc1cccc(C(=O)NC(=O)Nc2ccc(-c3cc(C(F)(F)F)nn3-c3ccccc3)cc2)c1 -6.17%
CCn1c(=O)cc(SCC(=O)NCc2ccccc2OC)c2ccccc21 -16%
COc1ccc2cc(C(=O)NCc3ccc4c(c3)CCN4C(=O)c3ccccc3)[nH]c2c1 -10.3%
COc1ccc(C(=O)Nc2ccc(OCc3cc(=O)n4ccsc4n3)cc2)cc1OC -10.7%
Cc1cc(=O)n2nc(N3CCC(C(=O)NCc4ccccc4)CC3)sc2n1 -5.82%
Cc1ccc(NC(=O)Cn2cnc3nc4c(cc3c2=O)CCCC4)cc1Cl -30.4%
Cc1cc(NC(=O)NCc2ccc3c(c2)CCN3C(=O)c2ccccc2)ccc1Br 5.04%
CCOc1ccc(S(=O)(=O)c2cn(Cc3ccccc3)c3ccc(OCC)cc3c2=O)cc1 -5.11%
CC(C)(C)OC(=O)N1CCC(c2c(C(=O)NCc3ccco3)cnn2-c2ccccc2)CC1 15.8%
O=C(C1CCN(S(=O)(=O)c2cccc3nonc23)CC1)N1CCN(c2ccccc2F)CC1 0.426%
Cc1cc(C)c2c(=O)cc(C(=O)Nc3ccc(S(=O)(=O)N(C)Cc4ccccc4)cc3)oc2c1 -7.86%
CCOC(=O)c1sc2ccccc2c1S(=O)(=O)N1CCN(c2cccc(C)c2C)CC1 0.75%
CCOC(=O)c1sc2ccccc2c1S(=O)(=O)N1CCN(c2cccc(OC)c2)CC1 -5.29%
Cc1nn(-c2ccc(F)cc2)c(-n2cccc2)c1C(=O)NCCCN1CCN(c2cccc(Cl)c2)CC1 -19.4%
O=C(NCc1cccnc1)C(=O)NCC(c1cccnc1)N1CCN(c2ccccc2F)CC1 (stereo not given) -8.67%
O=C(Cn1cc(C(=O)c2ccco2)c2ccccc21)Nc1ccccc1Cl -20.6%
COc1ccc(OC)c(CNC(=O)C2CCN(c3ncnc4c3nc3n4CCCCC3)CC2)c1 -2.73%
O=C(CCn1nc(-c2ccc(Cl)cc2)c2ccccc2c1=O)Nc1ccc(OC(F)(F)F)cc1 -24.5%
